How the values were obtained:
[1] = biological target: T1, human PD-L1, his tagged (hPD-L1-his) (human, UniProt Q9NZQ7 part only, limits assumed); test: BLI (ForteBio Octet), human PD-L1
T1 construct: also called huPD-L1-His; recombinant human PD-L1; not shown: his tag

[2] = biological target: T2, cynomolgus PD-L1, his tagged (cPD-L1-his) (cynomolgus (Macaca fascicularis), UniProt G7PSE7 19-238); test: BLI (ForteBio Octet), cynomolgus PD-L1
T2 construct: also called cyPD-L1-His; Cyno PD-L1

[3] = biological target: T3, human PD-L1 expressed on cells (HCC827, NCI-H292, CHO-PD-L1, engineered CHO-K1) (human, UniProt Q9NZQ7); test: flow cytometry on NCI-H292 cells, apparent Kd
T3 construct: whole, on cells; Endogenous on the human lung lines HCC827 and NCI-H292; transfected on CHO cells; also called PD-L1 on HCC827; PD-L1 on NCI-H292
Experimental: (§1) The ability of PD-L1 antibody sialidase conjugates to bind PD-L1 on HCC827 and NCI-H292 cells was examined next. […] After washing with staining buffer, cells were incubated with AF647 Goat anti-human IgG(H+L) in staining buffer at 4° C. for 30 min. After 2× wash with staining buffer, cells were fixed and run on FACSCelesta.

[4] = biological target: T3, human PD-L1 expressed on cells (HCC827, …); test: flow cytometry on HCC827 cells, apparent Kd; calculated using data points up to 11 nM
Experimental: as §1

[5] = biological target: T1, human PD-L1, his tagged (hPD-L1-his); test: BLI (ForteBio Octet), recombinant human PD-L1
[6] = biological target: T3, human PD-L1 expressed on cells (HCC827, …); test: cell-based or functional assay

T2 sequence (G7PSE7 entry or part of it limits assumed, form in doubt): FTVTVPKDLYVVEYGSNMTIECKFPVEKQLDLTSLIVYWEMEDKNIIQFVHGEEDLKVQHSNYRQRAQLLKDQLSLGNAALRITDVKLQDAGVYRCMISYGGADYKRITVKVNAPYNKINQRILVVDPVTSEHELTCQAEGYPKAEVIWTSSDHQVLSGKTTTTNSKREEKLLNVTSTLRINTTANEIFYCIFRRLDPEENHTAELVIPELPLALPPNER
T1 sequence (Q9NZQ7 19-238 limits assumed): as the sequence (G7PSE7 entry or part of it limits assumed, form in doubt) above, with T33A, S34A, N62S, Q68R, R82Q, L173F, A185T, I192T, L215H counted along it

| Kd [1] | koff [1] | kon [1] | Kd [2] | koff [2] | kon [2] | Kd [3] | Kd [4] | Kd [5] | koff [5] | kon [5] | EC50 (NFAT-luciferase fold induction), first of three lots [6] | EC50 (NFAT-luciferase fold induction), second of three lots [6] | EC50 (NFAT-luciferase fold induction), third of three lots [6] | Binder |
| --- | --- | --- | --- | --- | --- | --- | --- | --- | --- | --- | --- | --- | --- | --- |
| 1.73 nM | 0.000751 s⁻¹ | 436000 M⁻¹ s⁻¹ | 2.26 nM | 0.000821 s⁻¹ | 367000 M⁻¹ s⁻¹ | 0.193 nM | 0.233 nM | – | – | – | – | – | – | ASC3 (Janus PD-L1 antibody sialidase conjugate) (other, One h769.T antibody arm plus one mutant Neu2-Fc chain; human IgG1 Fc with N297A) light: EIVMTQSPPTLSLSPGERVTLSCRASQSVSNDLSWYQQKPGQAPRLLIYYASIRFTGIPARFSGSGSGTDFTLTISSLQPEDFAVYYCQQDYTSPWTFGQGTKVEIKRTVAAPSVFIFPPSDEQLKSGTASVVCLLNNFYPREAKVQWKVDNALQSGNSQESVTEQDSKDSTYSLSSTLTLSKADYEKHKVYACEVTHQGLSSPVTKSFNRGEC heavy: EVQLVQSGAEVKKPGATVKISCKVSGFNIKDTYMHWVQQAPGKGLEWMGLIDPANDNTIYAEKFQGRVTITADTSTDTAYMELSSLRSEDTAVYYCAREGYGGSYGEGYWGQGTLVTVSSASTKGPSVFPLAPSSKSTSGGTAALGCLVKDYFPEPVTVSWNSGALTSGVHTFPAVLQSSGLYSLSSVVTVPSSSLGTQTYICNVNHKPSNTKVDKKV[omitted - human IgG1 Fc with N297A Y407T (EU numbers)] DASLPYLQKESVFQSGAHAYRIPALLYLPGQQSLLAFAEQRASKKDEHAELIVLRRGDYDAGTHQVQWQAQEVVAQARLDGHRSMNPCPLYDEQTGTLFLFFIAIPGQVTEQQQLQTRANVTRLCYVTSTDHGRTWSSPRDLTDAAIGPAYREWSTFAVGPGHCLQLHDRARSLVVPAYAYRKLHPKQRPIPSAFCFLSHDHGRTWARGHFVAQDTLECQVAEVETGEQRVVTLNARSHLRFRVQAQSTNDGLDFQESQLVKKLVEPPPTGCQGSVISFPSPRSGPGSPAQWLLYTHPTHSWQRADLGAYLNPRPPAPEAWSEPVLLAKGSAAYSDLQSMGTGPDGSPLFGCLYEANDYEEIVFLMFTLKQAFPAEYLPQ[omitted - human IgG1 Fc with C220S N297A T366Y (EU numbers)] |
| – | – | – | – | – | – | – | – | 1.72 nM | 0.000766 s⁻¹ | 456000 M⁻¹ s⁻¹ | – | – | – | ASC1 (Janus PD-L1 antibody sialidase conjugate) (other, One h769.T antibody arm plus one Neu2 (M1D, V6Y, P62G, A93E, I187K, C332A)-Fc chain; human IgG1 Fc with N297A, knob/hole) light: EIVMTQSPPTLSLSPGERVTLSCRASQSVSNDLSWYQQKPGQAPRLLIYYASIRFTGIPARFSGSGSGTDFTLTISSLQPEDFAVYYCQQDYTSPWTFGQGTKVEIKRTVAAPSVFIFPPSDEQLKSGTASVVCLLNNFYPREAKVQWKVDNALQSGNSQESVTEQDSKDSTYSLSSTLTLSKADYEKHKVYACEVTHQGLSSPVTKSFNRGEC heavy: EVQLVQSGAEVKKPGATVKISCKVSGFNIKDTYMHWVQQAPGKGLEWMGLIDPANDNTIYAEKFQGRVTITADTSTDTAYMELSSLRSEDTAVYYCAREGYGGSYGEGYWGQGTLVTVSSASTKGPSVFPLAPSSKSTSGGTAALGCLVKDYFPEPVTVSWNSGALTSGVHTFPAVLQSSGLYSLSSVVTVPSSSLGTQTYICNVNHKPSNTKVDKKV[omitted - human IgG1 Fc with N297A T366Y (EU numbers)] DASLPYLQKESVFQSGAHAYRIPALLYLPGQQSLLAFAEQRASKKDEHAELIVLRRGDYDAGTHQVQWQAQEVVAQARLDGHRSMNPCPLYDEQTGTLFLFFIAIPGQVTEQQQLQTRANVTRLCQVTSTDHGRTWSSPRDLTDAAIGPAYREWSTFAVGPGHCLQLHDRARSLVVPAYAYRKLHPKQRPIPSAFCFLSHDHGRTWARGHFVAQDTLECQVAEVETGEQRVVTLNARSHLRARVQAQSTNDGLDFQESQLVKKLVEPPPQGCQGSVISFPSPRSGPGSPAQWLLYTHPTHSWQRADLGAYLNPRPPAPEAWSEPVLLAKGSAAYSDLQSMGTGPDGSPLFGCLYEANDYEEIVFLMFTLKQAFPAEYLPQ[omitted - human IgG1 Fc with C220S N297A Y407T (EU numbers)] |
| 1.66 nM | 0.000721 s⁻¹ | 433000 M⁻¹ s⁻¹ | 1.23 nM | 0.000438 s⁻¹ | 369000 M⁻¹ s⁻¹ | 0.363 nM | 0.455 nM | – | – | – | 11.5 nM | 11.6 nM | 12.7 nM | ASC5 (Janus PD-L1 antibody sialidase conjugate) (other, One h769.T antibody arm plus one mutant Neu2-Fc chain; human IgG1 Fc with N297A) light: EIVMTQSPPTLSLSPGERVTLSCRASQSVSNDLSWYQQKPGQAPRLLIYYASIRFTGIPARFSGSGSGTDFTLTISSLQPEDFAVYYCQQDYTSPWTFGQGTKVEIKRTVAAPSVFIFPPSDEQLKSGTASVVCLLNNFYPREAKVQWKVDNALQSGNSQESVTEQDSKDSTYSLSSTLTLSKADYEKHKVYACEVTHQGLSSPVTKSFNRGEC heavy: EVQLVQSGAEVKKPGATVKISCKVSGFNIKDTYMHWVQQAPGKGLEWMGLIDPANDNTIYAEKFQGRVTITADTSTDTAYMELSSLRSEDTAVYYCAREGYGGSYGEGYWGQGTLVTVSSASTKGPSVFPLAPSSKSTSGGTAALGCLVKDYFPEPVTVSWNSGALTSGVHTFPAVLQSSGLYSLSSVVTVPSSSLGTQTYICNVNHKPSNTKVDKKV[omitted - human IgG1 Fc with N297A Y407T (EU numbers)] DASLPYLQKESVFQSGAHAYRIPALLYLPGQQSLLAFAEQRRSKKDEHAELIVLRRGDYDAGTHQVQWQAQEVVAQARLDGHRSMNPCPLYDEQTGTLFLFFIAIPGQVTEQQQLQTRANVTRLCYVTSTDHGRTWSSPRDLTDAAIGPAYREWSTFAVGPGHCLQLHDRARSLVVPAYAYRKLHPKQRPIPSAFCFLSHDHGRTWARGHFVAQDTLECQVAEVETGEQRVVTLNARSHLRFRVQAQSTNDGLDFQESQLVKKLVEPPPTGCQGSVISFPSPRSGPGSPAQWLLYTHPTHSWQRADLGAYLNPRPPAPEAWSEPVLLAKGSAAYSDLQSMGTGPDGSPLFGCLYEANDYEEIVFLMFTLKQAFPAEYLPQ[omitted - human IgG1 Fc with C220S N297A T366Y (EU numbers)] |
| 1.79 nM | 0.000755 s⁻¹ | 449000 M⁻¹ s⁻¹ | 1.04 nM | 0.00039 s⁻¹ | 423000 M⁻¹ s⁻¹ | 0.445 nM | 0.56 nM | – | – | – | – | – | – | ASC4 loss of function (ASC4 LOF), Janus PD-L1 antibody sialidase conjugate with inactive sialidase (other, human IgG1 Fc with N297A) light: EIVMTQSPPTLSLSPGERVTLSCRASQSVSNDLSWYQQKPGQAPRLLIYYASIRFTGIPARFSGSGSGTDFTLTISSLQPEDFAVYYCQQDYTSPWTFGQGTKVEIKRTVAAPSVFIFPPSDEQLKSGTASVVCLLNNFYPREAKVQWKVDNALQSGNSQESVTEQDSKDSTYSLSSTLTLSKADYEKHKVYACEVTHQGLSSPVTKSFNRGEC heavy: EVQLVQSGAEVKKPGATVKISCKVSGFNIKDTYMHWVQQAPGKGLEWMGLIDPANDNTIYAEKFQGRVTITADTSTDTAYMELSSLRSEDTAVYYCAREGYGGSYGEGYWGQGTLVTVSSASTKGPSVFPLAPSSKSTSGGTAALGCLVKDYFPEPVTVSWNSGALTSGVHTFPAVLQSSGLYSLSSVVTVPSSSLGTQTYICNVNHKPSNTKVDKKV[omitted - human IgG1 Fc with N297A Y407T (EU numbers)] DASLPYLQDESVFQSGAHAYRIPALLYLPGQQSLLAFAEQRASKKDEHAELIVLRRGDYDAPTHQVQWQAQEVVAQARLDGHRSMNPCPLYDEQTGTLFLFFIAIPGQVTEQQQLQTRANVTRLCQVTSTDHGRTWSSPRDLTDAAIGPAYREWSTFAVGPGHCLQLHDRARSLVVPAYAYRKLHPKQRPIPSAFCFLSHDHGRTWARGHFVAQDTLANQVAEVETGEQRVVTLNARSHLRARVQAQSTNDGLDFQESQLVKKLVEPPPQGCQGSVISFPSPRSGPGSPAQWLLYTHPTHSWQRADLGAYLNPRPPAPEAWSEPVLLAKGSAAYSDLQSMGTGPDGSPLFGCLYEANDYEEIRFRMFTLKQAFPAEYLPQ[omitted - human IgG1 Fc with C220S N297A T366Y (EU numbers)] |

Reference: US20240067729A1 (PALLEON PHARMACEUTICALS, published 2024)
